According to PubChem BioAssay AID493208 (National Center for Advancing Translational Sciences (NCATS), 2011):
About 340 (0.77%) of roughly 44,000 compounds were called active. Not shown: some 5% with an inconclusive outcome. Calls follow the shape of the dose curve; as a rule, active = well fitted inhibition curve with a large enough effect; inconclusive = small, poorly fitted or top-dose-only effect; inactive = flat fitted curve, though single readings scatter. Some of the results follow.

assay: Acumen qHTS Assay for Inhibitors of the mTORC1 Signaling Pathway in MEF (Tsc2-/-, p53-/-) Cells: Sytravon; details: phospho-rpS6 immunofluorescence/PI, 24 h; series mostly up to 38.3 µM; activity change, negative = inhibition: at the top concentration;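 also: plate controls were DMSO for no effect and rapamycin for full effect; nearly all actives have a fitted effect of over 50% in size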
How it was run: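 Readout is phospho-S6 Alexa 488 signal normalized to PI per well, reported as % active cells with thresholds set from rapamycin (7.5 nM) and DMSO controls. Cells: Tsc2-/-, p53-/- MEFs, 24 hrs compound at 37 C; PI cell number serves as viability.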

Activity change, negative = inhibition, inactive:
Cc1ccc2nc(-c3ccc(C)s3)c(Nc3ccc4c(c3)OCCO4)n2c1 -0.654%
COc1ccc(CCNC(=O)CN(c2ccccc2)S(=O)(=O)N(C)C)cc1 0.165%
COc1ccccc1-c1nn(CCC(=O)Nc2ccccc2)c2nc(C)cc(C)c12 -0.686%
O=C(NCc1ccccc1Cl)c1ccc2c(c1)NC(=O)C(CS(=O)(=O)Cc1ccc(Cl)cc1)N2 (stereo not given) 4.35%
O=C(Nc1ccc(F)c(F)c1)C(c1ccccc1)N1Cc2ccccc2C1=O (stereo not given) -5.5%
CCN(CC)CCNC(=O)c1cc2c(-c3cccc(OC)c3)nn(C)c2s1 -0.0503%
Cc1ccc(C(=O)N2CCN(CCc3ccncc3)CC2)cc1 -0.265%
CCOc1ccccc1NC(=O)Cn1c(=O)n(CCCC(=O)NCc2ccc(C)cc2)c(=O)c2ccccc21 2.09%
Cc1cccc2sc(N(Cc3cccnc3)C(=O)c3ccco3)nc12 -1.7%
COc1ccccc1OCC(=O)NCCS(=O)(=O)N1CCN(c2ccccc2OC)CC1 1.07%
Cc1nn(C(C)C(=O)NCc2ccco2)c(=O)c2nn(-c3ccccc3)c(C)c12 (stereo not given) -0.0337%
COc1ccc(S(=O)(=O)Nc2cccc(-c3ccc(N4CCCCC4)nn3)c2)cc1F -1.39%
CN1C(=O)c2ccccc2Sc2ccc(NC(=O)N3CCN(c4ccc(F)cc4)CC3)cc21 -23.5%
COc1ccc(-c2nc(S(=O)(=O)c3ccccc3)c(N3CCC(C)CC3)o2)cc1 15.6%
COc1ccc(NC(=O)C(NS(=O)(=O)c2cccc3nsnc23)C(C)C)cc1OC (stereo not given) -1.72%
CCOc1ccc(CNC(=O)c2cc3cc(S(=O)(=O)N4CCCCC4)ccc3n2C)cc1 -17.9%
COc1ccc(C(=O)NCCc2csc(-c3ccc(Cl)cc3)n2)c(OC)c1 -0.355%
Cc1ccc(Cl)cc1-n1c(SCC(=O)NCc2ccccc2)nc2n[nH]c(C)c2c1=N -4.01%
CSc1ccc(CCNC(=O)CN2C(=O)COc3ccc(S(=O)(=O)N4CCCCCC4)cc32)cc1 -1.84%
COc1cccc(Nc2nc3c(S(=O)(=O)c4cc(C)ccc4C)nnn3c3ccsc23)c1 1.83%
O=C(CN1c2ccc(Br)cc2-c2ccccc2S1(=O)=O)N1CCCCC1 -9.4%
CC(=O)Nc1c(C)nn(-c2ccccc2)c1N1CCC(C(=O)Nc2ccccc2C(F)(F)F)CC1 2.65%
Cc1ccc(NC(=O)N2CCN(Cc3nc4ccc(C)cc4o3)CC2)cc1 6.83%
Cc1cc(=O)c2cc(C(=O)Nc3ccc(F)cc3)ccc2[nH]1 -1.07%
CCOC(=O)N1CCN(S(=O)(=O)N2CCCC(C(=O)NCc3cc(Br)ccc3OC)C2)CC1 (stereo not given) 6.81%
Cc1cc(C)c(NC(=O)CSC2=Nc3ccccc3C3=NC(CC(=O)NCc4cccs4)C(=O)N23)c(C)c1 (stereo not given) -2.88%
O=C(Cn1c(-c2cccs2)cc2cc(F)ccc21)N1CCN(c2ccccc2)CC1 5.91%
COc1ccc(C)cc1-n1nnc(S(=O)(=O)c2ccc(C)cc2)c1C -3.21%
COc1ccc2c(C)c(CCC(=O)NCc3ccccc3OC)c(=O)oc2c1 -8.17%
Cc1cccn2c(=O)c(C(=O)NC(C)c3ccccc3)c(O)nc12 (stereo not given) -0.652%
CCOc1ccc(Nc2oc(/C=C/c3ccc(OC)c(OC)c3)nc2C#N)cc1 -17.5%
O=C(c1ccccc1Cl)N1CCC(c2nc3ccccc3s2)CC1 -9.53%
CCN(CC)S(=O)(=O)c1ccc(C(=O)NC2CC(=O)N(c3ccc(OC)c(OC)c3)C2)cc1 (stereo not given) -1.54%
Cc1ccc(N(CC(=O)NCCSc2ccccc2)S(=O)(=O)c2ccc(F)cc2)cc1 14.6%
CC(=O)c1ccc(NC(=O)c2cc3sccc3n2Cc2ccc(Cl)cc2)cc1 8.96%
O=C(COc1ccc(Cl)cc1)NCC(c1ccco1)S(=O)(=O)c1ccc(F)cc1 (stereo not given) -3.84%
CCOCCCNC(=O)C(=O)Nc1c2c(nn1-c1ccccc1)CSC2 0.207%
Cc1ccc(CNS(=O)(=O)c2ccc3[nH]c4c(c3c2)CCCCC4)cc1 7%
COCCCn1c(=O)c2sccc2n2c(CCCC(=O)Nc3cccc(OC)c3)nnc12 -18.3%
Cc1cccc(NC(=O)C2CCCN(S(=O)(=O)c3ccc4c(c3)CCCC(=O)N4)C2)c1 (stereo not given) 7.78%
COc1ccc(Cl)cc1NC(=O)Cn1nc(C(F)(F)F)c2c1CCCC2 0.649%
CCc1ccc(NC(=O)c2ccc(Cn3nc(N4CCN(c5ccccc5)CC4)ccc3=O)o2)cc1 -10.8%
O=C(c1ccc2c(c1)N(Cc1c(F)cccc1Cl)C(=O)c1ccccc1S2)N1CCCC1 2.28%
Cc1ccc(Cl)cc1-n1ncc2c(Nc3ccc4c(c3)OCCO4)ncnc21 6.69%
COc1cc(NC(=O)CN2C(=O)COc3ccc(S(=O)(=O)NC4CCCC4)cc32)cc(OC)c1 -4.86%
CC(=O)N1CCCC1c1nc2ccccc2n1Cc1ccc(F)cc1 (stereo not given) 4.06%
CC1CCc2c(sc3nnn(CC(=O)Nc4c(C(C)C)cccc4C(C)C)c(=O)c23)C1 (stereo not given) 1.99%
CCC(C)c1ccccc1OCC(=O)Nc1ccc(S(=O)(=O)Nc2cc(C)on2)cc1 (stereo not given) -3.93%
COc1cc(NS(=O)(=O)c2c(C(=O)N3CCCCC3)c(C)n(C)c2C)cc(OC)c1OC 5.28%
COc1ccc(-c2cc3ncc(C(=O)c4cc([N+](=O)[O-])ccc4O)cn3n2)cc1 6.01%
O=C(Nc1cccc2cccnc12)c1ccc(-c2cccc(Cl)c2)o1 -0.405%
CCCn1c2ccccc2c2cnn(CC(=O)NCCCN(CC)c3ccccc3)c(=O)c21 -8.71%
O=C(Nc1sc2c(c1C(=O)NCC1CCCO1)CCC2)c1cc(=O)c2cc(Cl)ccc2o1 (stereo not given) -0.173%
COc1cccc(NC(=O)CCCn2c(=O)c3cccn3c3cccnc32)c1 3.26%
Cc1ccc(CCNC(=O)c2ccc3c(c2)N(Cc2ccccc2F)C(=O)c2ccccc2S3=O)cc1 (stereo not given) -1.19%
Cn1nnnc1SCCCNCc1cc(Br)ccc1OCc1ccccc1F -15.3%
CCOC(=O)c1cc(-c2ccccc2)n(CC(=O)Nc2ccccc2OCC)c1C -12.2%
Fc1ccc(-c2cc(-c3ccccc3)c3c(n2)-c2ccccc2OC3)cc1 -4.19%
COc1ccc(-c2nc(CCNC(=O)c3ccccc3)cs2)cc1OC -8.56%
Cc1cccc(C)c1NC(=O)CCCn1c(=O)c2cccn2c2ccccc21 8.81%
O=C1C(=O)N(C2CCNCC2)CCN1Cc1ccccc1 2.18%
CCOC(=O)c1c(S(=O)(=O)NCC(=O)Nc2ccc(C(C)=O)cc2)c(C)n(C)c1C 0.371%
CCOc1ccc(-n2cc(-c3ccccc3)c3c(NC4CCCCC4)ncnc32)cc1 5.05%
Cc1nn(-c2ccccc2)c(OC(=O)c2ccccc2Cl)c1S(=O)(=O)c1ccccc1 1.23%
COc1ccc2c(c1)c1c(c(=O)n(-c3cccc(Cl)c3)c(=O)n1CC(=O)NCC1CCCO1)n2C (stereo not given) -7.51%
Cc1ccc(CNC(=O)CCS(=O)(=O)c2ccc3c(c2)CC(C)N3C(=O)C2CC2)cc1 (stereo not given) 0.907%
CCOc1ccc(NC(=O)CSC2=Nc3ccccc3C3=NC(CCC(=O)NCc4cccs4)C(=O)N23)cc1 (stereo not given) -4.87%
COCCNC(=O)Cn1cnc2sc(C)c(S(=O)(=O)N3CCN(c4ccccc4OC)CC3)c2c1=O 0%
COc1cc(CNCCSc2nnnn2C)ccc1OCc1ccc(F)cc1 -22.2%
CC(CNC(=O)c1nnc(Cc2cccc(F)c2)o1)c1ccccc1 (stereo not given) 3.5%
CCOC(=O)c1[nH]c(C)c(CCC(=O)Nc2cccc(C(F)(F)F)c2)c1C 1.6%
COc1ccc(N2CC(NC(=O)C3CC3)CC2=O)cc1 (stereo not given) 0.671%
CCC(NC(=O)Nc1ccc(OC)c(OC)c1)c1c(-n2cccc2)sc2c1CCN(C)C2 (stereo not given) 1.07%
CC(=O)c1cccc(NC(=O)[C@H](Cc2ccccc2)N2Cc3ccccc3C2=O)c1 -10.5%
COc1ccccc1C(=O)NCCSc1c(C)[nH]c2ccccc12 8.5%
O=c1oc2ccc3ccccc3c2cc1-c1nnc(Nc2ccc(Cl)cc2Cl)s1 -5.22%
COc1cccc(NC(=O)CSc2nc(=O)n(Cc3ccccn3)c3c2CCC3)c1 3.27%
CCc1ccc(NC(=O)Cn2c(=O)c(CNc3ccccc3)cc3cc(OC)c(OC)cc32)cc1 -0.56%
Cc1cccc(NC(=O)C2CCCN(S(=O)(=O)c3c(C)[nH]c(=O)[nH]c3=O)C2)c1C (stereo not given) -1.7%
COc1ccc(-c2nc3ccccc3o2)cc1NC(=O)C(C)(C)Oc1ccc(Br)cc1 -3.42%
COc1cccc(N2CCN(C(=O)CCS(=O)(=O)c3ccc4c(c3)CC(=O)N4C)CC2)c1 0%
O=C(Cn1c(=O)oc2cc(S(=O)(=O)N3CCCC3)ccc21)NCc1ccc(Cl)cc1 -0.993%
CCN(CC)C(=O)Cn1c(=O)n(Cc2ccc(C(=O)NCc3ccc(C)cc3)cc2)c(=O)c2ccccc21 -26.1%
Cc1ncc(CO)c2c1Oc1nc(-c3ccccc3)nc(SCC(=O)N3CCCCC3)c1C2 -1.57%
COc1ccc(NC(=O)Cn2c(=O)n(-c3cccc(C)c3)c(=O)c3c2c2cc(C)ccc2n3C)cc1Cl -3.05%
CCOc1cc2sc(N3CCC(C(=O)Nc4ccccc4C(=O)OC)CC3)nc2cc1Br -4.58%
CCOCCCNC(=O)c1cc2c(=O)n(C)c3ccccc3c2n1C -11.7%
Cc1ccc(NC(=O)c2cn3c4c(ccc(Cl)c4c2=O)OC(C)C3)cc1C (stereo not given) -1.21%
COc1ccc(C(=O)Nc2cc(-c3ccccc3)nn2-c2ccccc2)cc1 5.15%
CCOC(=O)c1sc(NC(=O)C(C)Oc2ccc(OC)cc2)c(C(=O)OCC)c1C (stereo not given) -5.08%
O=C(COCc1cc(-c2cccs2)on1)Nc1cc(Cl)ccc1O 0.238%
Cc1ccc(NC(=O)COc2ccc(-c3nn(C)c(=O)c4ccccc34)cc2)cc1 -16.6%
CCOC(=O)c1cccc(NC(=O)c2cc3cc4cc(OC)ccc4nc3s2)c1 -0.521%
COc1ccc(C)cc1NC(=O)CN1C(=O)COc2ccc(S(=O)(=O)N3CCOCC3)cc21 -3.92%
CCOc1ccccc1NC(=O)Cn1c(=O)oc2cc(S(=O)(=O)NCc3ccccc3)ccc21 0.352%
